Experimental data from PubChem BioAssay AID624417 (National Center for Advancing Translational Sciences (NCATS), 2012).
Hit rate of the full screen: of about 410,000 compounds, about 6,400 (1.6%) were called active. This list was built around the results that the source calls inconclusive (neither active nor inactive); the mix of calls is not that of the screen. Calls follow the shape of the dose curve; as a rule, active = well fitted inhibition curve with a large enough effect; inconclusive = small, poorly fitted or top-dose-only effect; inactive = no such curve, though single readings can be large or run the other way. Potencies of inconclusive entries are doubtful fits and often do not repeat.

molecular target: Glucagon-like peptide 1 receptor (Homo sapiens) (UniProt P43220); experiment: qHTS of GLP-1 Receptor Inverse Agonists (Inhibition Mode); settings: HEK293 GLP-1R CRE-luciferase, luminescence, 24 h, GLP-1R form is constitutively active; activity change, negative = inhibition: at 38.3 µM (top of the series) unless noted; also: nearly all actives have a fitted effect of over 55% in size
Sequence of UniProt P43220 (P43220 whole entry, looked up): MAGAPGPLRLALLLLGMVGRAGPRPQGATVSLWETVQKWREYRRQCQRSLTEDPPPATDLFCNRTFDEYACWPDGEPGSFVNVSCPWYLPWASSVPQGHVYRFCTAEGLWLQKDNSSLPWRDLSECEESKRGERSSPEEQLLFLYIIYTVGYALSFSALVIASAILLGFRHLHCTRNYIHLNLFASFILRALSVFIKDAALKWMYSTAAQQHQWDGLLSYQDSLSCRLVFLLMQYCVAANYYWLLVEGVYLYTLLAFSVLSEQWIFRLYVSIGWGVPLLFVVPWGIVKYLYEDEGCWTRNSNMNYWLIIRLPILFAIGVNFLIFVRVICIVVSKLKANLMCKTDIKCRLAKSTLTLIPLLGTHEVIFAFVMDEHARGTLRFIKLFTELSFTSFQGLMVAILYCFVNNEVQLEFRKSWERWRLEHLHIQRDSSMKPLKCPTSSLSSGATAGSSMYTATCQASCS
Method in brief: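 Seeding at 200 cells/uL, 12 h culture, 24 hr compound treatment, then luciferase reagent and a luminescence read; cells are HEK293 stably expressing a constitutively active GLP-1R plus cAMP-responsive luciferase.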
% is scaled to controls: 0 for no effect and ±100 for the full control effect; potency is read from the fitted curve at half-maximal effect; tags tell the direction and shape of the fitted curve.

Potency, active:
CCN(CC)CCCC(C)Nc1nccc2c(Cl)cccc12 (stereo not drawn) 4.47 µM
COc1cccc(/C=N/Nc2nnc(C)n2N)c1O 10 µM

Potency, inconclusive:
COc1ccccc1CCC(=O)Nc1nc2ccccc2[nH]1 2.51 µM [inhibitor, full curve, poor fit]
CCN(C(=O)COC(=O)c1ccc(Cl)cc1N)C1CCCCC1 14.1 µM [inhibitor, single point]
CC(=O)C1CN(S(=O)(=O)c2ccc(C)cc2)C(c2ccccc2)CC1C (stereo not drawn) 28.2 µM [inhibitor, single point]
CCOc1ccc(NCc2cccn2-c2nnc(N3CCC(C(=O)NCCCN4C(C)CCCC4C)CC3)s2)cc1 (stereo not drawn) 11.2 µM [inhibitor, partial curve, poor fit]
CCn1c(=O)cc(SCC(=O)NCc2ccc(Cl)cc2)c2ccccc21 1 µM [inhibitor, full curve, poor fit]
COc1cccc(CNCc2cccn2-c2nnc(N3CCN(c4ccccc4)CC3)s2)c1 22.4 µM [inhibitor, single point]
CC(C(=O)N1c2ccccc2CCc2ccccc21)n1nnc(-c2ccc(N(C)C)cc2)n1 (stereo not drawn) 4.47 µM [inhibitor, partial curve, poor fit]
Cc1ccc(S(=O)(=O)N/N=C/c2cccc(OC3CSC3)c2)cc1 28.2 µM [inhibitor, single point]
O=C(Oc1cccc2cccnc12)c1cccs1 3.55 µM [inhibitor, full curve, poor fit]
Cc1csc(NC(=O)c2ccc3c(c2)OCO3)n1 28.2 µM [inhibitor, single point]
O=C(c1cccs1)N(CCN1CCCCC1)CC1CCCN(C2CCCC2)C1 (stereo not drawn) 17.8 µM [inhibitor, partial curve, poor fit]
O=S(=O)(c1ccc2c(c1)OCCO2)N1CCC(c2nc3ccc(Cl)cc3[nH]2)CC1 28.2 µM [inhibitor, single point]
Cc1cnc(NC(=O)NCC2CCCC(CNC(=O)Nc3ncc(C)s3)C2)s1 (stereo not drawn) 10 µM [inhibitor, partial curve, poor fit]
O=C(CN1CCCC1)Nc1ccccc1Sc1ccc(Cl)cc1 11.2 µM [inhibitor, partial curve, poor fit]
COc1ccc(OC)c(C(=O)COC(=O)c2ccccc2O)c1 28.2 µM [inhibitor, single point]
CCc1cc(C(=O)NCC(c2ccco2)N2CCCCC2)sc1C (stereo not drawn) 7.08 µM [inhibitor, partial curve, poor fit]
NS(=O)(=O)c1ccc(NCc2cc(Cl)ccc2OCc2ccc(F)cc2)cc1 1.41 µM [inhibitor, partial curve, poor fit]
Cc1cc(S(=O)(=O)Nc2nc(CN3CCOCC3)nc3sc4c(c23)CCC4)ccc1F 3.16 µM [inhibitor, partial curve, poor fit]
OC1(c2ccc(Cl)cc2)CCN(Cc2cn[nH]c2-c2ccccc2)CC1 2 µM [inhibitor, partial curve, poor fit]
CCN1CCCC1CNC(=O)c1cc2c(-c3cccc(OC)c3)nn(C)c2s1 (stereo not drawn) 7.94 µM [inhibitor, partial curve, poor fit]
CCOC(=O)C1=C(C)NC(SC)=C(C#N)C1CC(C)C (stereo not drawn) 12.6 µM [inhibitor, partial curve, poor fit]
CCCCc1c(C)nc2ccccc2c1SCCC#N 28.2 µM [inhibitor, single point]
CCN(CC(=O)Nc1c(F)cccc1F)C(=O)c1ccc(COc2ccccc2)cc1 3.55 µM [inhibitor, partial curve, poor fit]
CCNC(=S)N/N=C(\C)c1ccco1 22.4 µM [inhibitor, single point]
O=C1NC(=O)/C(=C\c2ccccc2Oc2ccc(F)c(F)c2)S1 14.1 µM [inhibitor, single point]
COc1ccc(C(=O)CN2Cc3ccccc3C2=N)cc1 14.1 µM [inhibitor, single point]
Cc1cccc(OCCCOc2cccc3cccnc23)c1C 28.2 µM [inhibitor, single point]
Cc1cccc(N2CCN(C(=O)c3oc(=O)c4ccccc4c3-c3ccccc3)CC2C)c1 (stereo not drawn) 11.2 µM [inhibitor, single point]
CCOc1ccccc1Cn1c(=O)sc2ccccc21 10 µM [inhibitor, partial curve, poor fit]
CCC(C)(C)C1CCc2[nH]nc(C(=O)NCc3ccccn3)c2C1 (stereo not drawn) 28.2 µM [inhibitor, single point]
CCN(CC)Cc1c(C(=O)N/N=C/c2ccc(OCc3ccccc3C)cc2)nnn1-c1nonc1N 2 µM [inhibitor, partial curve, poor fit]
CC1CCc2[nH]c3ccc(C(=O)N(C)CC(=O)Nc4ccccc4Br)cc3c2C1 (stereo not drawn) 11.2 µM [inhibitor, partial curve, poor fit]
Cc1sc2nnn(CC(=O)N3CCN(C(=O)c4ccco4)CC3)c(=O)c2c1C 11.2 µM [inhibitor, single point]
Cc1ccc(NC(=O)c2nc[nH]c2C(=O)NCCCCCNC(=O)OC(C)(C)C)cc1 12.6 µM [inhibitor, single point]
CCOc1ccc(S(=O)(=O)/N=C(/Nc2ccc(C(C)=O)cc2)c2ccccc2)cc1 28.2 µM [inhibitor, single point]
Cc1ccc(Cl)cc1-n1c(SCC(=O)NCCC2=CCCCC2)nc2n[nH]c(C)c2c1=N 8.91 µM [inhibitor, single point]
O=C(NCc1ccccc1C(F)(F)F)C1CC(c2ccc(C(F)(F)F)cc2)=NO1 (stereo not drawn) 28.2 µM [inhibitor, single point]
O=c1oc2ccccc2c(NC2CCCCC2)c1NS(=O)(=O)c1ccc(Cl)cc1 28.2 µM [inhibitor, single point]
CC1(c2ccc(OC(F)F)cc2)NC(=O)N(CC(=O)Nc2ccc(N3CCCCC3)cc2)C1=O (stereo not drawn) 7.94 µM [inhibitor, partial curve, poor fit]
Cc1cc(C)cc(NC(=O)C2CCCN2S(=O)(=O)c2ccc3nc(-c4ccccc4)[nH]c3c2)c1 (stereo not drawn) 17.8 µM [inhibitor, partial curve, poor fit]
O=C(COc1ccc(/C=N/NC(=O)c2cc3ccccc3o2)cc1Br)Nc1ccccc1 28.2 µM [inhibitor, single point]
NS(=O)(=O)c1ccc(N2N=C(c3ccccc3)CC2c2cccc(Br)c2)cc1 (stereo not drawn) 28.2 µM [inhibitor, single point]
COC(=O)c1sc(-c2ccccc2)cc1NC(=O)Nc1ccc(F)cc1 2.82 µM [inhibitor, single point]
C=CCn1c(Cc2cccs2)nnc1SCC(=O)Nc1cccc(OC)c1 11.2 µM [inhibitor, partial curve, poor fit]
O=C(Cn1cc(C(=O)COc2ccccc2)c2ccccc21)NCc1ccco1 8.91 µM [inhibitor, partial curve, poor fit]
Oc1c(CN2CCCCC2)ccc2cccnc12 1.12 µM [inhibitor, full curve, poor fit]
CC(C)=CCCC(C)CN1CCC(n2nccc2NC(=O)C2CCCC2)CC1 (stereo not drawn) 7.08 µM [inhibitor, partial curve, poor fit]
O=C(CCNC(=O)c1ccc([N+](=O)[O-])cc1)Nc1cccc(S(=O)(=O)N2CCCCC2)c1 31.6 µM [inhibitor, single point]
COc1cc(C23CCCN(CCC(C(C)(C)C)C2)C32OCCO2)cc(OC)c1OC (stereo not drawn) 28.2 µM [inhibitor, single point]
S=C(Nc1cccnc1)NC1CCCCCCC1 12.6 µM [inhibitor, single point]

Activity change, negative = inhibition, inactive:
COc1ccc(/C=N\Nc2ccc([N+](=O)[O-])cc2[N+](=O)[O-])c(C(=O)O)c1OC 0.163%
CC1(C(=O)NS(=O)(=O)c2cccs2)CCN1C(=O)Cc1ccc(-c2ccccc2)cc1 (stereo not drawn) -22.6%
Cc1ccc(S(=O)(=O)NCC(=O)NC2CCCCCC2)cc1 0%
COc1ccc2[nH]c(C)c(CCNC(=S)Nc3cc(C)ccc3C)c2c1 -25.7%
Cc1ccc(C2CCN(C(=O)Nc3ccc(Cl)c(Cl)c3)C2)cc1 (stereo not drawn) 7.31%
O=C(O)c1ccccc1CSc1nc2ccccc2o1 -16.6%
CCc1nn(CC(=O)NCCc2ccc(Cl)cc2)c(=O)c2cc3ccccc3n12 9.21%
CCOc1cc(S(=O)(=O)NCC2OCCc3ccccc32)c(OCC)cc1-n1cnnn1 (stereo not drawn) 0%
O=C(/C=C/c1ccccc1)Nc1ccc(Cl)cn1 -24.9%
Cc1nc(N)[nH]c(=O)c1CCCNc1ccc(CCC2(CCl)OCCO2)cc1 24.5%
O=C(COC(=O)c1cccnc1Cl)NCCC1=CCCCC1 1.73%
